Some of the results follow. Many values rest on one well or one pass, so single values are uncertain.
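Note: polymyxin B level opens the outer membrane while sparing the inner membrane, with novobiocin wells as reference growth inhibitor.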

The test system of the assay is Salmonella enterica serovar Typhimurium SL1344. Put plainly: bacterial growth OD600 after 18 h in MHB with 0.5 µg/mL polymyxin B; higher = more bacterial growth (less inhibition). As to conditions: 25 µM; polymyxin B 0.5 µg/mL; system: broth. The method, then:
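Secondary screen of the 553 primary hits at 25 µM. (i) S. Typhimurium SL1344 grown in Mueller-Hinton broth with 0.5 µg/mL polymyxin B, OD600 read after 18 h. (ii) SAFIRE assay: RAW 264.7 macrophages infected with S. Typhimurium sifB::gfp (MOI 30); compound added 2 h post-infection; cells fixed at 18 h; GFP-positive pixel fraction per macrophage imaged by confocal microscopy and expressed as % of DMSO control.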
For the molecule `CN(C(=O)c1cccs1)C(Cc1ccccc1)C1CCN(C(=O)c2ccc(-n3cccn3)cc2)CC1` (centres undefined), the “bacterial growth OD600” value was 0.004.
Consider `CN(C)C1(C(=O)N2CCCC2c2ccc(F)cc2)Cc2ccccc2C1` (centres undefined), for which the “bacterial growth OD600” value came out at 0.017.
Take `COCCC(=O)Nc1ccc2c(c1)CN(C(=O)c1cc3c(s1)CCCCC3)CC2`: the “bacterial growth OD600” value stood at 0.002.
Turning to `COc1ccc(-c2nc(CN(Cc3ccccc3)C[C@@H]3CCC(=O)N3)c(C)o2)cc1C`, the “bacterial growth OD600” value is -0.008.
The same measure for `CC(=O)Nc1ccnn1C1CCN(Cc2ccc(-c3ccccc3)cc2)CC1`: 0.399.
On to `Cc1cccc(-c2cnc(-c3ccncc3)nc2C2CCN(C(=O)c3cc(CC(C)C)on3)CC2)c1`, for which the “bacterial growth OD600” value was -0.001.
Consider `COc1cccc(-c2ccc(NC(=O)C3CCCN3C(=O)C3(C)CC3)cc2)c1` (centres undefined), for which the “bacterial growth OD600” value stood at 0.16.
`CCCc1ccc2oc(C(=O)N3CCC(OCc4ccccn4)CC3)c(C)c2c1`: the “bacterial growth OD600” value turned out to be 0.
The value for `CN(C(=O)c1cc(NS(C)(=O)=O)cc2ncn(CCc3ccccc3)c12)C(C1CC1)C1CC1` was 0.005.
`COc1ccccc1C(=O)N[C@@H]1c2ccccc2C2(CCN(C(=O)CC3CCCC3)CC2)[C@H]1OC`: the “bacterial growth OD600” value is -0.006.
The same measure for `Cc1ccc(CN(C)Cc2cnc(S(=O)(=O)C(C)C)n2CCc2ccccc2)cc1`: 0.003.
The value for `COc1ccc(-c2cnnc(NCCc3ccccc3F)n2)c(OC)c1` was -0.002; that for `O=C(CC1(c2ccccc2Cl)CC(=O)N(C2CCCC2)C1=O)N1CCCCCC1` (centres undefined) was 0.
For the molecule `COc1ccc2c(c1)NC(=O)C2CC(=O)N(Cc1ccncc1)Cc1cccc(OCCc2ccc(F)cc2)c1` (centres undefined), the “bacterial growth OD600” value was -0.001.

Values taken from the supplement of paper PMC12889115.
